# Some of the results follow. The energies were worked out here from pooled read counts, against the library average; single values are noisy.
# Target: T1, Pho4 (S. cerevisiae) (UniProt P07270)
# T1 sequence: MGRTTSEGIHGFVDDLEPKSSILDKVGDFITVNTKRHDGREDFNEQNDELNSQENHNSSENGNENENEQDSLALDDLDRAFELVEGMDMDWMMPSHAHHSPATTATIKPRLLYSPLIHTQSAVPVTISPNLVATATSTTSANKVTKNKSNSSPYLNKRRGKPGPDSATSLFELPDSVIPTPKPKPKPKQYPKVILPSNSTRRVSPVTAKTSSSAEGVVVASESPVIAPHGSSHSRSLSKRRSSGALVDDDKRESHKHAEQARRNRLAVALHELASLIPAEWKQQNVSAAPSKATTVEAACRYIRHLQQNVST
# Assay: relative binding free energy (BET-seq); higher = weaker binding
# Settings: reference: library average
row,Sequence,relative binding free energy [kcal/mol]
1,GGACTCACGTGTTTAT,0.38
2,AGTGCCACGTGTATAG,-0.1
3,TTGATCACGTGGCGGA,0.06
4,GGTTCCACGTGGCTGT,0.09
5,TGTGCCACGTGGGAAT,-0.08
6,GTATTCACGTGCTAGT,0.22
7,TTTATCACGTGTAACG,0.19
8,CGGGTCACGTGGTATA,0.12
9,AATATCACGTGATTTA,0.19
10,GAGGCCACGTGGTTTA,0
11,CTGGGCACGTGTAGAT,0.02
12,TAGGTCACGTGTTGAC,0.05
13,CCTGTCACGTGGGTTG,-0.02
14,CTCGTCACGTGGGTGG,-0.1
15,TTATACACGTGATAGG,0.11
16,TAGGGCACGTGAGCCG,0.08
17,GCTAACACGTGGTGTG,0.01
18,TATCTCACGTGTGGGT,0.3
19,CTGAACACGTGGTAGG,-0.1
20,CAGTGCACGTGTGAGG,0.03
21,AGCGTCACGTGTGCTG,0.15
22,GAGTTCACGTGGGGAG,0.22
23,CGGGACACGTGATGTG,0.13
24,GCGGACACGTGCGGTT,0.07
25,TTATTCACGTGAGTGT,0.42
26,TGCGGCACGTGAAAGG,0.14

row,Sequence,relative binding free energy [kcal/mol]
1,TGGTCCACGTGCTTTG,-0.05
2,AACGTCACGTGAGGGT,0.36
3,ATATTCACGTGGGCAG,0.12
4,TAGTACACGTGGACGG,-0.02
5,AGCGTCACGTGGACGG,0.05
6,ATGTGCACGTGTGTTA,-0.04
7,CGTTCCACGTGGGGGG,-0.06
8,TACGTCACGTGTCGTG,0.08
9,CGGTGCACGTGAATTT,0.28
10,AGGATCACGTGCCGGT,0.13
11,GGCACCACGTGTGGGA,0.05
12,TGAAACACGTGGGGGG,-0.15
13,TTGTGCACGTGAGAGA,0.11
14,GGTATCACGTGGGGGC,0.06
15,GGGTTCACGTGTGGGG,0.43
16,TTAACCACGTGTGTTG,-0.04
17,GTATTCACGTGAGCGG,0.2
18,CTTGTCACGTGAGTAT,0.2
19,GGGAACACGTGATTGT,0.26
20,GTGTCCACGTGATTTG,0.31
21,CAAGGCACGTGTGGGG,-0.13
22,CTTGACACGTGGGGTA,-0.14
23,TTTTGCACGTGAATCA,0.21
24,TTGAGCACGTGAAGTA,0.26
25,AACGTCACGTGGTTGG,0.13
26,TGGGCCACGTGAATGT,0.08

row,Sequence,relative binding free energy [kcal/mol]
1,GGGATCACGTGGCATT,0.06
2,TTCAGCACGTGGCTGG,-0.08
3,GGGGTCACGTGTTTAC,0.14
4,TGGTGCACGTGGTTCG,0.09
5,AGTGGCACGTGTTGCT,-0.2
6,GTTGTCACGTGCCGAG,0.09
7,TGGCTCACGTGAATGG,0.38
8,CGTGACACGTGTTTGA,0.04
9,CTTTTCACGTGGGGGT,0.13
10,CTATGCACGTGATTTG,0.14
11,AGTGGCACGTGGGTGT,-0.19
12,CTGGACACGTGGGTTG,-0.11
13,AGTGACACGTGACGGG,-0.05
14,GGTCGCACGTGGTTAA,-0.09
15,TATTTCACGTGGGGTT,0.19
16,AAATACACGTGTGAGT,0.15
17,TATCTCACGTGGTTGA,0.26
18,GTGGTCACGTGACGGG,0.29
19,TTTTTCACGTGATAAC,0.39
20,GTATGCACGTGGAGCT,0
21,AGTGTCACGTGGATTA,0.08
22,GGGTTCACGTGAGCAG,0.37
23,TGGGGCACGTGCGAGA,-0.12
24,GGGGTCACGTGTTTCT,0.16
25,TGGTACACGTGGGCGT,-0.13
26,GGGACCACGTGTTATG,0.12

row,Sequence,relative binding free energy [kcal/mol]
1,TGGACCACGTGGTGAT,-0.06
2,CTGTTCACGTGGAATG,0.36
3,TTTTTCACGTGATCGG,0.22
4,CTTATCACGTGGCTTG,0.1
5,CGGGGCACGTGTGGCT,-0.03
6,TAGGACACGTGTTGTT,0.02
7,TATCTCACGTGTTTAT,0.19
8,GCGATCACGTGGGGGT,0
9,TGAGTCACGTGGATAA,0.24
10,GGAGTCACGTGGCGGG,-0.02
11,TGTTGCACGTGACGGC,0.11
12,CCGTGCACGTGTGGGG,-0.02
13,GACTACACGTGGTGGG,0.18
14,GGCGGCACGTGTGTAT,0.14
15,CTTGTCACGTGAGGGA,0.24
16,CTATGCACGTGCGGGG,-0.15
17,GTAGACACGTGGTGGC,-0.05
18,GGTTGCACGTGAAATG,0.26
19,GAGTTCACGTGATGAT,0.36
20,GCGTTCACGTGGGAGT,0.28
21,CTTTTCACGTGGGTCT,0.04
22,TAAGTCACGTGAAGTG,0.38
23,TTTTCCACGTGCTTGT,0.1
24,GGGAACACGTGTTGTT,0.16
25,GGGAACACGTGGCTTG,-0.04
26,CTGTGCACGTGGAATG,0.07

row,Sequence,relative binding free energy [kcal/mol]
1,TAAGGCACGTGGTAGG,-0.23
2,TCTATCACGTGGTGTG,0.06
3,AAGTGCACGTGATGTG,0.18
4,TGAAACACGTGAAGTT,0.45
5,GACGACACGTGGAGGG,-0.02
6,CTGGTCACGTGACAGG,0.17
7,GTCTACACGTGAGGGT,0.4
8,TAAGTCACGTGAAGGT,0.31
9,GCATTCACGTGAGGGT,0.28
10,TTGTTCACGTGAATGG,0.34
11,TGGGGCACGTGTTCGT,-0.14
12,ACTATCACGTGTTGAG,0.17
13,TTAGACACGTGGTAGC,0
14,CTGTACACGTGGTGTT,-0.08
15,GGGGTCACGTGAAAGA,0.35
16,CTTGGCACGTGTATGG,-0.07
17,TATTGCACGTGGGACT,-0.07
18,CGTTTCACGTGGAATT,0.49
19,GGATGCACGTGAGCTT,0.14
20,TGGGGCACGTGTGAAT,0.01
21,TGACTCACGTGTGTTG,0.12
22,TTGTACACGTGGTATT,0.02
23,TGCATCACGTGGGGGA,-0.11
24,GTCTGCACGTGAAGTT,0.38
25,GTGAGCACGTGATGAT,0.22
26,GTGTGCACGTGTATTC,-0.06

row,Sequence,relative binding free energy [kcal/mol]
1,GGTCACACGTGGGGAC,0.13
2,GTATACACGTGGGGCC,0.07
3,GTGATCACGTGCATTG,0.13
4,CTTGGCACGTGCAGGG,-0.23
5,GATGGCACGTGAGAGG,0.22
6,TTTCTCACGTGTTATG,0.25
7,GGGGTCACGTGACGCG,0.11
8,CTAGGCACGTGGCTTG,-0.15
9,GGTTGCACGTGTCGCG,0.02
10,GGGTGCACGTGTTTTC,0.09
11,TCGAACACGTGGTGGG,-0.1
12,TGGAACACGTGTTGCA,0.01
13,ATTTGCACGTGGCAGA,0.07
14,GGGAGCACGTGCAGGC,-0.04
15,GGTATCACGTGAAGGT,0.31
16,GGAGTCACGTGTGGGA,0.17
17,GATGGCACGTGGATTG,-0.06
18,AGTTTCACGTGAGGTT,0.33
19,TGGAACACGTGTAGAG,0.07
20,TGAAGCACGTGTGGTC,-0.12
21,GGTAGCACGTGATATT,0.11
22,TTGGGCACGTGAGATT,0.12
23,TCGTGCACGTGGCTGT,-0.22
24,TTGAGCACGTGTATTT,0.09
25,AGCTTCACGTGTGGCG,0.23
26,ATAATCACGTGGAGTG,-0.03

row,Sequence,relative binding free energy [kcal/mol]
1,TTGGACACGTGCTGGA,0.06
2,AGGTTCACGTGATAGG,0.33
3,CTTGTCACGTGGTTAA,0.02
4,AGGCGCACGTGGTGGT,-0.29
5,TGTGACACGTGGTGCG,-0.18
6,CTTCGCACGTGGTTGT,-0.08
7,GTGAGCACGTGAAATG,0.35
8,TGTGGCACGTGGTAAC,-0.07
9,GGCTTCACGTGGGGAT,0.18
10,CAGATCACGTGGGGGT,-0.04
11,TCGTTCACGTGTGTGG,0.38
12,GGTTTCACGTGATAGA,0.36
13,TTATACACGTGATAAT,0.3
14,GGTCGCACGTGCTAGG,-0.14
15,TCCGGCACGTGATTGG,0.12
16,TGTGTCACGTGTGCGT,0.06
17,CTGGTCACGTGGATGG,0.2
18,TGCTTCACGTGCGTAT,0.19
19,CGTATCACGTGTTGGG,0.25
20,GCGGGCACGTGTGGCT,-0.06
21,CGGGCCACGTGGAGTG,-0.11
22,AGTAGCACGTGTAAGG,0.07
23,TTGGGCACGTGGACGC,-0.07
24,TGTCACACGTGTAATA,0.25
25,CTCTGCACGTGATGGG,0.11
26,GGTTACACGTGGAATT,0.24

row,Sequence,relative binding free energy [kcal/mol]
1,AAGTTCACGTGTGTTC,0.3
2,GAATGCACGTGGAAGT,0.05
3,GCAGGCACGTGTGGCA,0.06
4,GGCGACACGTGTAGAG,0.21
5,AATTACACGTGCATGT,0.16
6,GGGGTCACGTGATGTT,0.33
7,GTTATCACGTGGGTCG,0.19
8,GAGGACACGTGGGGGC,-0.12
9,AATAACACGTGGGTAT,-0.1
10,GATCGCACGTGGGGTG,-0.15
11,CTTTACACGTGGGAGT,-0.16
12,GTGAGCACGTGAGGAT,0.1
13,GATTTCACGTGGCATT,0.37
14,TTAAGCACGTGATGAT,0.09
15,AAAATCACGTGGAGTG,0.17
16,GTCGTCACGTGGAAGG,0.13
17,GAGACCACGTGATGGG,0.28
18,ATGGGCACGTGGTCAA,-0.16
19,GGGTTCACGTGAATGA,0.55
20,GGTGCCACGTGAGTTT,0.2
21,TGGTGCACGTGCGTGG,-0.04
22,CGAGGCACGTGAAATG,0.27
23,ATTGCCACGTGGTTGT,-0.24
24,CGTAGCACGTGGGCGG,-0.25
25,AAGTGCACGTGGCATG,-0.08
26,GGTGGCACGTGTCGTA,-0.09

row,Sequence,relative binding free energy [kcal/mol]
1,AGGTACACGTGTAGCT,0.19
2,GGTGTCACGTGTAACG,0.08
3,GGAGTCACGTGGATCG,0.16
4,AGGACCACGTGCGGGG,-0.01
5,GTGGGCACGTGTTGCG,-0.11
6,TCGGTCACGTGATACG,0.35
7,TCTATCACGTGAAGTT,0.43
8,TTAATCACGTGTAATT,0.23
9,GAGTGCACGTGCCGGT,-0.04
10,GGGAGCACGTGTTCTT,-0.03
11,GCTGTCACGTGGTAAA,0.2
12,ATATTCACGTGAGGGA,0.4
13,TGTATCACGTGTTTTT,0.21
14,TAGGTCACGTGTTTAA,0.09
15,ACTTGCACGTGTGGTT,-0.01
16,TTTTGCACGTGAAGAG,0.28
17,GGAAGCACGTGGGCGC,-0.19
18,TCTATCACGTGTGGTG,0.09
19,TGCTGCACGTGAGTAT,0.17
20,CTTTCCACGTGGTTTT,0.17
21,AAGATCACGTGGGATG,0.12
22,CTAGTCACGTGGGTGT,0.03

# From the BET-seq Pho4 binding data (Le et al. 2018)
